Assay results reported in PubChem BioAssay AID488969 (Vanderbilt High Throughput Screening Facility, 2010).
In all, about 110,000 compounds were measured (“z-score”: median about -0.1, highest 2% from about 2 on). This is one part of the list. Calls of active or inactive are those of the source.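 How the source made its calls: active means z-score in the third read window above 3 or below -3; inactive means the rest.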

target: Metabotropic glutamate receptor 8 (Rattus norvegicus) (UniProt P70579); experiment: mGluR8 Gi/Go-coupled signaling modulation – cell-based, rat, thallium flux, HTS, primary screen (AID 488969); conditions: HEK293 rat mGluR8, GIRK (G protein-gated inwardly rectifying potassium channel) thallium flux, FluoZin2; at 10 µM; stronger effect = higher value; submaximal glutamate (EC20) added with thallium
Sequence of UniProt P70579 (P70579 whole entry, looked up): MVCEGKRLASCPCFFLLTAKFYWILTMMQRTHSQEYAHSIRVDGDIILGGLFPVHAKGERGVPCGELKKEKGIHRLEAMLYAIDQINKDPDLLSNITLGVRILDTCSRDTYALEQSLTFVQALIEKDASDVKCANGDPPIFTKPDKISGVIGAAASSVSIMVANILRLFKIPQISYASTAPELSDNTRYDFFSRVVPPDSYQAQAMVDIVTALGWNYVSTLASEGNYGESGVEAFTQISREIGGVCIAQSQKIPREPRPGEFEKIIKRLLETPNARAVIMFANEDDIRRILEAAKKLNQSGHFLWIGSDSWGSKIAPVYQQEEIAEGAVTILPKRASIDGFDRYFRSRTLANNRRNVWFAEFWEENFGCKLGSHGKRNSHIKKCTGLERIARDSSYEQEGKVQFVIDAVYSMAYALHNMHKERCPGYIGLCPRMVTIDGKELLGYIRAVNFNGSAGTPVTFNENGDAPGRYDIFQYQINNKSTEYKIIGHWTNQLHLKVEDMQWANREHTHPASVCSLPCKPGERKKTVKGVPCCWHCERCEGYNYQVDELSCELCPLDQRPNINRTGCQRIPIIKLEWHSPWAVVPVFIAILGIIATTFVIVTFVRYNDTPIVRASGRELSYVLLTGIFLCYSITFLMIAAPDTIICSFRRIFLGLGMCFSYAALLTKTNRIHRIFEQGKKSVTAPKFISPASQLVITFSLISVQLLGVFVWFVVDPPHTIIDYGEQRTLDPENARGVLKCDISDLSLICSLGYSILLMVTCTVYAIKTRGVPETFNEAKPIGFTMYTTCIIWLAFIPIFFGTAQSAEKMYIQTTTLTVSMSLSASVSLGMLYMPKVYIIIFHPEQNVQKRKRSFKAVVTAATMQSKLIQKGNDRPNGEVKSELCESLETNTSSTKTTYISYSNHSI

Structure (SMILES) | z-score
COC(=O)c1cn[nH]c1NC(=S)Nc1ccc(Cl)c(Cl)c1 | -0.0115
O=C(CC12CCC(CC1)C2)NCc1ccc2c(c1)OCO2 | -0.246
O=C(CSc1nccn1-c1ccccc1)NCc1ccc2c(c1)OCO2 | -0.394
Cc1ccc(S(=O)(=O)N2CCSC2)cc1C | -0.248
Cc1cccc(-n2c(Cn3nc(C)c([N+](=O)[O-])c3C)n[nH]c2=S)c1 | 0.621
CC(=O)/C(=N\Nc1ccccc1Cl)Sc1cccc2cccnc12 | 0.299
Clc1ccc(-c2ccnc(Oc3ccc4ccccc4c3)n2)cc1 | 0.148
O=C(COc1ccc2c(c1)C(=O)CC1(CCCCC1)O2)NCc1ccccn1 | -0.0332
O=C(NCc1ccco1)C1CCN(c2ccc(N3CCOCC3)nn2)CC1 | 0.321
CCc1nnc(NC(=O)CN2CCN(c3ccccc3OC)CC2)s1 | -0.0727
O=C(Nc1ccc(Oc2ccccc2)cc1)C1CCN(c2c3c(nc4ncnn24)CCC3)CC1 | -0.406
CCOC(=O)C1CCCCN1C(=O)CCc1c(C)nc2cc(-c3ccccc3)nn2c1C (centres undefined) | -0.526
CCOC(=O)N1CCN(C(=S)Nc2ccc3nc(N4CCN(CC)CC4)cc(C)c3c2)CC1 | 0.896
O=Cc1cn(CC(=O)NCC2CCCO2)c2ccccc12 (centres undefined) | -0.103
CCN(CCNC(=O)C1CCN(S(=O)(=O)CC)CC1)c1ccccc1 | -0.121
O=C(N/N=C/c1cc2c(cc1[N+](=O)[O-])OCO2)c1ccccn1 | -0.173
Cc1noc(NS(=O)(=O)c2ccc(NC(=O)CC34CC5CC(CC(Br)(C5)C3)C4)cc2)c1C | 0.138
Cc1cccc(C(=O)Nc2sc(C(=O)N3CCCC3)c(C)c2C#N)c1 | 0.227
NC(=O)C1CCN(C(=O)Nc2ccccc2)CC1 | -0.167
CC(C)n1c(-c2ccc(C(C)(C)C)cc2)n[nH]c1=S | active: 8.21
COc1ccccc1NC(=O)C1CC(=O)N(c2ccc(F)cc2)C1 (centres undefined) | -0.682
COC(=O)c1ccc(C)c(NC(=O)c2nn(C)c(=O)c3ccccc23)c1 | -0.621
CCOC(=O)C1=C(C)N(C)C(=S)NC1c1ccccc1Cl (centres undefined) | -0.143
COc1ccccc1CNC(=O)CCN1C(=O)COc2ccccc21 | -0.13
O=C(O)c1cc(=O)c2cc(Cl)ccc2o1 | -0.147
Cn1c(N)c(C(=O)c2ccc(F)cc2F)c(=O)n(C)c1=O | 0.167
O=C(CCCOc1ccccc1)NCc1ccco1 | -0.205

Structure (SMILES) | z-score
O=C(CSc1nncn1-c1ccccc1)Nc1cc(Cl)cc(Cl)c1 | -0.24
COc1ccc(CCC(=O)Nc2ccc(C)c([N+](=O)[O-])c2)cc1 | -0.401
Cc1ccc(-n2c(=O)[nH]cc(C(=O)N3CCc4ccccc43)c2=O)cc1C | 0.0922
CCOC(=O)N1CCC(NC(=O)C2CCN(S(=O)(=O)c3c(C)noc3C)CC2)CC1 | -0.144
CC(C)COC(=O)Nc1ccc(C(=O)O)cc1 | 0.11
O=C(CC1Oc2ccccc2NC1=O)NCc1ccc(Cl)cc1 (centres undefined) | -0.15
CC(/C=N/NC(=O)c1cc(-c2ccc(Cl)cc2)nc2ccccc12)=C\c1ccco1 | 0.0726
CC(=O)N1C(=O)C2(C(C#N)=C(N)Oc3cc(C)oc(=O)c32)c2ccccc21 (centres undefined) | 0.149
COc1ccc(C2C(C(C)=O)=C(C)N=c3s/c(=C\c4ccc5c(c4)OCO5)c(=O)n32)c(OC)c1 (centres undefined) | -0.201
CC1CCCN(C(=O)CN2CCN(C(=O)c3ccco3)CC2)C1 (centres undefined) | 0.124
O=C(CSc1nnc(-c2ccco2)o1)N1c2ccccc2CCc2ccccc21 | -0.287
CC(C)COC(=O)Nc1nnc(SCCOc2ccccc2)s1 | -0.414
CCCOc1ccc(C(=O)NNC(=S)NC(=O)c2cc(-c3ccc(Cl)cc3)nc3ccccc23)cc1 | -0.0891
CCOc1ccc(S(=O)(=O)Nc2ccccc2SC)cc1 | 0.251
O=C(N/N=C/c1cn(-c2ccccc2)nc1-c1cc2ccccc2o1)c1cccnc1 | 0.0945
O=S(=O)(c1ccccc1Cl)N1CCC(O)(c2ccc3c(c2)OCO3)CC1 | 0.206
O=C(O)CCn1[nH]c(=O)ccc1=O | -0.273
COC(=O)c1nc2n(n1)C(c1ccc([N+](=O)[O-])cc1)C(C(=O)Nc1ccc(Cl)cc1)=C(C)N2 (centres undefined) | 0.221
O=C(CCCn1c(=O)[nH]c2ccsc2c1=O)N1CCN(Cc2ccc3c(c2)OCO3)CC1 | 0.38
OC(COCc1ccccc1)CN1CCN(c2ccccc2F)CC1 (centres undefined) | 0.0548
CCOc1[nH]n(-c2ccc(Cl)cc2)c(=O)c1C=Nc1ccc(OC)cc1 | 0.95
O=C(NCc1ccncc1)C1COc2ccccc2O1 (centres undefined) | -0.276
Cc1noc(C(=O)Nc2ccc3c(c2)OCO3)c1Cl | -0.183
CCOC(=O)CCCNC(=O)CN1C(=O)NC2(CCCCCC2)C1=O | 0.819
COC(=O)c1ccc(OC(=O)c2ccccc2F)cc1 | 0.198
CSc1nnc(-c2ccco2)c(-c2ccco2)n1 | -1.36
O=[N+]([O-])c1ccc(C2CCCC/C2=N/OCc2ccc(F)cc2)c([N+](=O)[O-])c1 (centres undefined) | -0.208
